Test results reported in patent publication US20240124563A1 (NANJING ZAIMING PHARMACEUTICAL, published 2024).

T1: human MSLN-R1-his protein (human, UniProt Q13421 296-390)
T1 construct: also called hMSLN-R1-his; not shown: histidine tag
T1 chain: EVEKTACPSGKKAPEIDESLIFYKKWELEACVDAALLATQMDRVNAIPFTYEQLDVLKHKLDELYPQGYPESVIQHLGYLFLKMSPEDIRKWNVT

B1: NB148-88 VHH-hFc (Fc fusion)
chain: QLQLVESGGGLVQPGGSHRLSCAVSVSTFTRYAMRWYRQAPGKEREWLTSIYSDGSSAYADSVKDRFTISLDNAKNMLYLQMNSLKPEDTAVYYCNANVDSKAYWGQGTQVTVAS[human IgG1 Fc with changes not written out]
notes: no linker stated
B2: NB149-31 VHH-hFc (Fc fusion)
chain: EVQVVESGGGLVQPGGSLRLSCAASGITFSGNYGGWFRQAPGEQRELVASMSSALGTKYADPVKGRFTISTDTAKNTVDLQMNSLGPEDTAVYYCYARVRLSRGGWGSEYWGQGTQVTVSS[human IgG1 Fc with changes not written out]
notes: no linker stated
B3: NB149-70 VHH-hFc (Fc fusion)
chain: QVQLVESGGGLVQPGGSLRLSCAASGSIFSGNAVAWYRQAPGKEREAVAVITRDGDTKYADSVKGRFTISRYNAKNIAYLQMNSLKPEDTAVYYCNTARGAAVDSWGQGTQVTVSS[human IgG1 Fc with changes not written out]
notes: no linker stated
B4: NB149-81 VHH-hFc (Fc fusion)
chain: EVQLVESGGGLVQAGGALRLSCAASERTFSSSSMGWFRQAPGKEREFVAAINRIGGHIYYADSVKGRFTISKDNAKNTVYLQMSSLKPEDTAVYYCASSRIYSHSARDYDYWGQGTQVTVSS[human IgG1 Fc with changes not written out]
notes: no linker stated

target: T2, human MSLN-FL-his protein (human, UniProt Q13421 296-580); assay: ELISA, coated antigen, 1 nM antibody
T2 construct: also called hMSLN-FL-his; not shown: histidine tag

Binder	OD450 nm
B1	1.67 OD450 nm
B2	1.4 OD450 nm
B3	1.61 OD450 nm
B4	1.25 OD450 nm

target: T2, human MSLN-FL-his protein; assay: ELISA, coated antigen, 100 nM antibody

Binder	OD450 nm
B1	2.88 OD450 nm
B2	2.63 OD450 nm
B3	2.3 OD450 nm
B4	2.37 OD450 nm

target: T3, human MSLN-R3-his protein (human, UniProt Q13421 487-598); assay: ELISA, coated antigen, 1 nM antibody
T3 construct: also called hMSLN-R3-his; not shown: histidine tag

Binder	OD450 nm
B1	0.05 OD450 nm
B2	0.05 OD450 nm
B3	0.05 OD450 nm
B4	0.04 OD450 nm

target: T3, human MSLN-R3-his protein; assay: ELISA, coated antigen, 0.01 nM antibody
T3 sequence (Q13421 495-606): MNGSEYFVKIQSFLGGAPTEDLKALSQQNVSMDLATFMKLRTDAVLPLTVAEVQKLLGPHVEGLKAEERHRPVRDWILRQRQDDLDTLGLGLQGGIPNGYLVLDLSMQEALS

Binder	OD450 nm
B1	0.05 OD450 nm
B2	0.05 OD450 nm
B3	0.05 OD450 nm
B4	0.05 OD450 nm

target: T3, human MSLN-R3-his protein; assay: ELISA, coated antigen, 0 nM antibody (blank)

Binder	OD450 nm
B1	0.05 OD450 nm
B2	0.05 OD450 nm
B3	0.05 OD450 nm
B4	0.05 OD450 nm

target: T3, human MSLN-R3-his protein; assay: ELISA, coated antigen, 0.0001 nM antibody

Binder	OD450 nm
B1	0.05 OD450 nm
B2	0.05 OD450 nm
B3	0.05 OD450 nm
B4	0.05 OD450 nm

target: T2, human MSLN-FL-his protein; assay: ELISA, coated antigen, 0.0001 nM antibody

Binder	OD450 nm
B1	0.05 OD450 nm
B2	0.05 OD450 nm
B3	0.05 OD450 nm
B4	0.04 OD450 nm

target: T2, human MSLN-FL-his protein; assay: ELISA, coated antigen, 10 nM antibody

Binder	OD450 nm
B1	2.67 OD450 nm
B2	2.14 OD450 nm
B3	2.16 OD450 nm
B4	2.09 OD450 nm

target: T2, human MSLN-FL-his protein; assay: ELISA, coated antigen, 0.01 nM antibody

Binder	OD450 nm
B1	0.07 OD450 nm
B2	0.07 OD450 nm
B3	0.08 OD450 nm
B4	0.06 OD450 nm

target: T2, human MSLN-FL-his protein; assay: ELISA, coated antigen, 0 nM antibody (blank)

Binder	OD450 nm
B1	0.05 OD450 nm
B2	0.05 OD450 nm
B3	0.05 OD450 nm
B4	0.05 OD450 nm

target: T3, human MSLN-R3-his protein; assay: ELISA, coated antigen, 0.1 nM antibody

Binder	OD450 nm
B1	0.05 OD450 nm
B2	0.05 OD450 nm
B3	0.05 OD450 nm
B4	0.05 OD450 nm

target: T3, human MSLN-R3-his protein; assay: ELISA, coated antigen, 0.001 nM antibody

Binder	OD450 nm
B1	0.05 OD450 nm
B2	0.05 OD450 nm
B3	0.05 OD450 nm
B4	0.05 OD450 nm

target: T4, human MSLN-R2-his protein (human, UniProt Q13421 391-486); assay: ELISA, coated antigen, 0.2 nM antibody
T4 construct: also called hMSLN-R2-his; not shown: histidine tag

Binder	OD450 nm
B1	2.18 OD450 nm
B2	0.08 OD450 nm
B3	0.09 OD450 nm
B4	0.08 OD450 nm

Target: T1, human MSLN-R1-his protein
Assay: ELISA, coated antigen, 0.2 nM antibody

Binder	OD450 nm
B1	0.19 OD450 nm
B2	1.7 OD450 nm
B3	1.79 OD450 nm
B4	0.05 OD450 nm

target: T3, human MSLN-R3-his protein; assay: ELISA, coated antigen, 0.2 nM antibody

Binder	OD450 nm
B1	0.05 OD450 nm
B2	0.05 OD450 nm
B3	0.05 OD450 nm
B4	0.05 OD450 nm

target: T2, human MSLN-FL-his protein; assay: ELISA, coated antigen, 0.2 nM antibody

Binder	OD450 nm
B1	2.4 OD450 nm
B2	2.58 OD450 nm
B3	2.48 OD450 nm
B4	2.31 OD450 nm

target: T3, human MSLN-R3-his protein; assay: ELISA, coated antigen, 10 nM antibody

Binder	OD450 nm
B1	0.05 OD450 nm
B2	0.05 OD450 nm
B3	0.05 OD450 nm
B4	0.05 OD450 nm

target: T4, human MSLN-R2-his protein; assay: ELISA, coated antigen, 20 nM antibody
T4 sequence (Q13421 other isoform, or with tags, fused parts or gaps): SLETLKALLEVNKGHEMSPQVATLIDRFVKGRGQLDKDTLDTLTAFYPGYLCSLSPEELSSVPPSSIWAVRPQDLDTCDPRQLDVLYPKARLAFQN

Binder	OD450 nm
B1	2.45 OD450 nm
B2	0.14 OD450 nm
B3	0.14 OD450 nm
B4	0.12 OD450 nm

Target: T1, human MSLN-R1-his protein
Assay: ELISA, coated antigen, 20 nM antibody

Binder	OD450 nm
B1	0.25 OD450 nm
B2	2.05 OD450 nm
B3	2.25 OD450 nm
B4	0.06 OD450 nm

target: T3, human MSLN-R3-his protein; assay: ELISA, coated antigen, 20 nM antibody

Binder	OD450 nm
B1	0.06 OD450 nm
B2	0.06 OD450 nm
B3	0.05 OD450 nm
B4	0.05 OD450 nm

target: T2, human MSLN-FL-his protein; assay: ELISA, coated antigen, 20 nM antibody

Binder	OD450 nm
B1	2.56 OD450 nm
B2	2.74 OD450 nm
B3	2.65 OD450 nm
B4	2.54 OD450 nm

target: T2, human MSLN-FL-his protein; assay: ELISA, coated antigen, 0.1 nM antibody

Binder	OD450 nm
B1	0.27 OD450 nm
B2	0.28 OD450 nm
B3	0.39 OD450 nm
B4	0.22 OD450 nm

target: T3, human MSLN-R3-his protein; assay: ELISA, coated antigen, 100 nM antibody

Binder	OD450 nm
B1	0.05 OD450 nm
B2	0.05 OD450 nm
B3	0.05 OD450 nm
B4	0.06 OD450 nm

target: T2, human MSLN-FL-his protein; assay: ELISA, coated antigen, 0.001 nM antibody

Binder	OD450 nm
B1	0.05 OD450 nm
B2	0.05 OD450 nm
B3	0.05 OD450 nm
B4	0.05 OD450 nm
